Data taken from PubChem BioAssay AID652104 (National Center for Advancing Translational Sciences (NCATS), 2013).
The campaign covered roughly 410,000 compounds. About 7,200 (1.8%) were called active. This list was built around the results that the source calls inconclusive (neither active nor inactive); the mix of calls is not that of the screen. Calls follow the shape of the dose curve; as a rule, active = well fitted activation curve with a large enough effect; inconclusive = small, poorly fitted or top-dose-only effect, or another doubt; inactive = no such curve, though single readings can be large or run the other way. Potencies of inconclusive entries are left out as doubtful fits.

test: qHTS of TDP-43 Inhibitors; settings: TDP-43 expressing yeast growth rescue, BacTiter-Glo, 24 h; growth rescue (activation): at 46.1 µM (top of the series) unless noted; also: nearly all actives have a fitted effect of over 50% in size; as to growth rescue (activation): % of control where 0% means no effect
Outline: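 Readout is BacTiter-Glo luminescence of cell growth, so inhibitors register as activators. TDP-43-expressing yeast at OD600=0.02 in galactose medium, after raffinose pregrowth to mid-log, were incubated with compound for 24 hr at 30 deg C.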
Potency is read from the fitted curve at half-maximal effect; tags tell the direction and shape of the fitted curve.

Structure (SMILES)	Potency	growth rescue (activation)
COC(=O)c1ccc(C2Nc3cccc4cccc(c34)N2)cc1	inconclusive [activator, single point]	–
CCOC(=O)[C@H]1[C@H]2COc3ccc(Cl)cc3[C@@H]2N2C(=O)CN(Cc3ccc(C)cc3)C(=O)[C@@]12C	inconclusive [activator, single point]	–
CCOc1ccccc1CN1CCNC(=O)C1CC(=O)N(C)Cc1cnccn1 (stereo not drawn)	–	inactive: -2.34%
COc1ccc(OCC2c3cc(OC)c(OC)cc3CCN2C(=O)c2c(F)cccc2F)cc1 (stereo not drawn)	–	inactive: 26.6%
COc1ccc(OC)c(NC(=O)Cn2cnc3onc(-c4ccc(Cl)cc4)c3c2=O)c1	–	inactive: 19.4%
Cc1ccc(-n2ncc3c(Nc4cccc(C(F)(F)F)c4)ncnc32)cc1C	inconclusive [activator, full curve, poor fit]	–
COc1cccc(N2CCN(C(=O)C3CCN(S(=O)(=O)c4cn(C)cn4)CC3)CC2)c1	–	inactive: 1.22%
CCOCCn1c(=O)c2c(nc3n2CCN3c2ccc(C)c(C)c2)n(C)c1=O	–	inactive: 12.4%
N/C(=N\OC(=O)c1ccccc1F)c1cccc([N+](=O)[O-])c1	inconclusive [activator, single point]	–
COc1cccc(CN2c3ccc(Br)cc3C(=O)CS2(=O)=O)c1	active: 15.8 µM	–
CN(C)c1cc(-c2ccc([N+](=O)[O-])cc2)oc(=O)c1Cl	inconclusive [activator, partial curve]	–
COc1cccc(SCC2(O)CCN(C(=O)c3ccc(Cl)cc3)CC2)c1	active: 22.4 µM	–
Cc1cc(C)c2nc(N(Cc3cccnc3)C(=O)Cc3ccccc3)sc2c1	inconclusive [activator, single point]	–
O=C(Nc1ccccc1)c1ccc(Nc2c([N+](=O)[O-])cc([N+](=O)[O-])c3ccccc23)cc1	–	inactive: 2.99%
O=C(CN1CCN(S(=O)(=O)N2CCCCCC2)CC1)Nc1ccc(F)cc1	inconclusive [activator, single point]	–
COc1cccc(C2CC(c3c(-c4ccccc4)c4cc(Cl)ccc4[nH]c3=O)=NN2S(C)(=O)=O)c1OC (stereo not drawn)	–	inactive: -2.01%
CCn1c(SC(C)C)nnc1-c1cc(-c2ccccc2)sc1N	inconclusive [activator, single point]	–
Fc1ccc(OCc2nc(-c3ccc(Br)o3)no2)c(F)c1	inconclusive [activator, partial curve]	–
Cc1cccc(-c2oc3ccccc3c2C#CCCCCO)c1	inconclusive [activator, partial curve]	–
O=C(O)c1ccc(N2CCc3ccccc32)c([N+](=O)[O-])c1	inconclusive [activator, partial curve]	–
CC1=NN(c2nc(-c3ccc(C#N)cc3)cs2)C(=O)C1	inconclusive [activator, single point]	–
CCOC(=O)c1c(-n2cnnn2)sc2c1CCCC2	inconclusive [activator, partial curve]	–
O=C(/C=C/c1ccccc1)CC(O)(c1ccccc1)C(F)(F)C(F)F (stereo not drawn)	inconclusive [activator, single point]	–

Structure (SMILES)	Potency	growth rescue (activation)
O=C1C(Cl)=C(Nc2ccccc2O)C(=O)N1c1ccccc1	active: 35.5 µM	–
CC(=O)c1cn(CC(=O)NCc2ccco2)c2ccccc12	–	inactive: -3.38%
CC(C)(C)NC(=O)CSCc1c(Cl)cccc1Cl	inconclusive [activator, partial curve]	–
COC(=O)C1=C(C(=O)OC)SC(=C2C(=S)C(C)(C)N(C(=O)CC(C)C)c3ccccc32)S1	inconclusive [activator, partial curve, poor fit]	–
Cc1ccc(OCCn2cc(C(=O)c3ccco3)c3ccccc32)cc1C	–	inactive: 11.6%
CCN(CC)C(=O)CCCOc1ccc(Cl)cc1Cl	active: 12.6 µM	–
OC(c1ccc(F)cc1)c1nc(/C=C/c2ccccc2)cs1 (stereo not drawn)	inconclusive [activator, partial curve]	–
CCN(CC)c1ccc(NC(=O)c2ccc(Br)o2)cc1	inconclusive [activator, partial curve]	–
CCCC(=O)C1=C(c2ccc(C)cc2)N(C(=O)CCC)n2cnnc2S1	inconclusive [activator, single point]	–
Cc1ccc(C(=S)NCS(=O)(=O)c2ccc(C)cc2)cc1	inconclusive [activator, single point]	–
CCC(C(=O)Nc1ccc2c(c1)OCCO2)n1nnc2ccccc2c1=O (stereo not drawn)	inconclusive [activator, partial curve]	–
Cc1ccc(OCC(=O)NNC(=S)NC(=O)C2CCCCC2)c(C)c1	active: 12.6 µM	–
NC(=O)c1oc2ccccc2c1NC(=O)c1ccccc1	–	inconclusive: 36.1% [activator]
Cc1nn(-c2ccccc2)c2c1C(c1ccc(Cl)cc1)N(c1ccccc1)C(=O)N2 (stereo not drawn)	inconclusive [activator, single point]	–
CC(/C=N/n1c(COc2ccccc2)n[nH]c1=S)=C\c1ccco1	inconclusive [activator, partial curve]	–
CCCC(=O)Nc1ccc2c(c1)c1ccccc1n2CC	inconclusive [activator, partial curve]	–
Cc1cc(C(=O)NC2CC(C)(C)Cc3c2cnn3-c2cccc(F)c2)nn1C (stereo not drawn)	inconclusive [activator, partial curve]	–
CCN(Cc1ccccc1)S(=O)(=O)c1ccc(C(=O)N(CCCN(C)C)c2nc3cc(OC)ccc3s2)cc1	–	inactive: -6.78%
Fc1cccc(Cc2c(-c3cccc(Cl)c3)nc3ccc(Cl)cn23)c1	inconclusive [activator, single point]	–
COc1ccc(-c2nnc(SCC(=O)c3ccc(C)o3)o2)cc1	inconclusive [activator, partial curve, poor fit]	–
O=C(CSc1nc(-c2ccccc2)c2ccccc2n1)Nc1ccc(F)cc1	–	inactive: 1.01%
CCOc1ccc(CCNC(=O)c2ccc3c(c2)N(Cc2ccccc2)C(=O)c2ccccc2S3=O)cc1OCC (stereo not drawn)	–	inactive: 18%
Cc1nc(N/N=C\c2ccc3c(c2)OCO3)sc1C	inconclusive [activator, single point]	–

Structure (SMILES)	Potency	growth rescue (activation)
COc1cccc(NC(=O)CCSc2ccc3ccccc3n2)c1	active: 12.6 µM	–
Cc1ccccc1C(=O)NNC(=S)NC(=O)c1cccnc1	inconclusive [activator, partial curve]	–
CC(C)(C)OC(=O)N1CCC(c2nnc(SCc3ccccc3F)o2)CC1	inconclusive [activator, single point]	–
Cn1c(NCc2ccccc2F)nc2cc(-c3ccsc3)sc2c1=O	inconclusive [activator, full curve]	–
OCCN1CCN(c2ncnc3c2c(-c2ccccc2)cn3-c2ccc(Br)cc2)CC1	–	inactive: -4.77% [at 9.22 µM]
Cc1noc(C)c1COc1ccccc1C(=O)NC(C)c1ccc(Cl)cc1 (stereo not drawn)	inconclusive [activator, partial curve, poor fit]	–
O=C(CSCc1ccc(Cl)cc1)Nc1ccc(S(=O)(=O)N2CCCCCC2)cc1	inconclusive [activator, partial curve]	–
CCOC(=O)CSC1=C(C#N)C(c2ccc(C)s2)CC(=O)N1 (stereo not drawn)	inconclusive [activator, single point]	–
COc1cccc(C2Cc3ccccc3C(=O)O2)c1 (stereo not drawn)	inconclusive [activator, partial curve, poor fit]	–
CC(C)CC(=O)C1CCCN(C(=O)c2ccc3oc(Cc4ccccc4)nc3c2)C1 (stereo not drawn)	inconclusive [activator, single point]	–
C/C(=N\NC(=S)Nc1ccc(C(C)C)cc1)c1ccc2c(c1)OCO2	inconclusive [activator, single point]	–
Cc1nn2c(=O)cc(COC(=O)c3ccc(NC(=O)COc4ccc(Cl)cc4)cc3)nc2s1	–	inactive: 10.4%
COc1ccccc1-c1nnc(C2CCN(S(=O)(=O)c3ccccc3[N+](=O)[O-])CC2)o1	inconclusive [activator, single point]	–
Cc1ccc(OCc2ccc(C(=O)N3CCCC3)o2)cc1C	inconclusive [activator, single point]	–
Cn1c(C(=O)N2CCCCCC2)cc2c(=O)n(C)c3ccccc3c21	inconclusive [activator, single point]	–
CCN(CC)S(=O)(=O)c1ccc(N2CCOCC2)c(NC(=O)c2ccc(F)cc2)c1	inconclusive [activator, full curve, poor fit]	–
COc1ccc(CC(=O)O/N=C(\N)Cc2ccc(OC)c(OC)c2)cc1	inconclusive [activator, single point]	–
CCOC(=O)c1c(NC(=O)/C=C/c2ccc(OCC)c(OC)c2)sc2c1CCC2	–	inactive: 8.89%
Cc1ccc(-c2nc3cnccn3c2Nc2ccc3c(c2)OCCO3)o1	inconclusive [activator, single point]	–
Cc1cc(C)cc(NC(=O)CN(c2ccc(F)cc2)S(C)(=O)=O)c1	inconclusive [activator, single point]	–
Cc1oc(-c2ccccc2)nc1CNC(=O)NC1CCCCC1	inconclusive [activator, partial curve]	–
COC(=O)c1cccc(NC(=S)NCCC2=CCCCC2)c1	inconclusive [activator, partial curve]	–
